# In the RNAGym collection of RNA variant scans (doi:10.7554/elife.90254):
# Read counts are not given, so values of variants with three or more changes are uncertain.
# B1: LINE1-mini (parent)
# chain: GGCAGAGCUCAACACAGCGUGGCAAAGUGGCUGUGGCUAGACUGCC
# Variants of: B1
# Assay: self-cleavage, relative activity (ratio to wild type); higher = more cleavage; in vitro, sequencing; the parent is a self-cleaving ribozyme
row,Variant,self-cleavage
1,GGCAGAGGCCAUCACAGCGUGGCAAAGUGGCUGUGGCUAGACUGAC [C8G U9C A12U C45A],0.02
2,GGCAAAGGUCAACACAGCGUGGCAAAGUGGCUGUGGCUAGACUGCA [G5A C8G C46A],0.15
3,GGCCGUGCUCAACAGAGCUUGGCAAAGUGGCGGUGGCUAGACUUCC [A4C A6U C15G G19U U32G G44U],0.02
4,AGCCGAGAUCAACACAGCGUGGCAAAGUGGCUGUGACUAGACUUCC [G1A A4C C8A G36A G44U],0.61
5,GGCAGAGCUAAACACAGCGUGGGAAAGUGGCUGUGGAUAGACAGCC [C10A C23G C37A U43A],0
6,GGCAGAGCUCAACCCAGCGUGGCAAAGUGGCUGUGGCUCGGCUGCC [A14C A39C A41G],0.01
7,GGCAGAGCUCAACACAGGGUGGCAAAGUGGCUGUGGUUAGAAUGCC [C18G C37U C42A],0.02
8,GGCAGAGCUCAUCAUAGCGUGGCAAAGUGGUUGUGGCUAGACUACC [A12U C15U C31U G44A],0.06
9,GGCAGAGCUCAACACAGCGUGGCCAAGGGGCUCUGGCUAGACUUCC [A24C U28G G33C G44U],0
10,GGCAGAGCUCAACACAGCGUGGCGAAGUGGCUGCGGUUAGACUGCC [A24G U34C C37U],0.05
11,GGCAGAGCACAACACAGCAUGGCAAAGUGGCUGUGGCUAGUCUGCC [U9A G19A A41U],0.1
12,GGCAUAGCUUAACACAGCGUGGCAAAGUGGCUGUGUCUAGACUGCC [G5U C10U G36U],0.01
13,GGCAGGGCUUAACAAAGCGUGGUAAAGUGGCUGUGGUUAGACUGCC [A6G C10U C15A C23U C37U],0.04
14,GGCAGCGCCCAAAACAGCGUGGCAAAGUGGCUGUGGCUAGAAUGCC [A6C U9C C13A C42A],0.05
15,GUUAGAUCUCAUCACAGCGUGGCAAAGUGACUGUGGCUAGACUGCC [G2U C3U G7U A12U G30A],0.2
16,GGCAGAGCUCAACACAUCGUGGCAAAGUGGCUGUGUCUAUACUGCC [G17U G36U G40U],0.03
17,AGCAGCGGUCGACACAGCGUGGCAAAGUGGCUGUGGCUGGACUGCC [G1A A6C C8G A11G A39G],0.04
18,GGAAGAGAUCAACACACCGUGACAAAGUGGUUGUGGCUAGACUGCC [C3A C8A G17C G22A C31U],0.32
19,GGCAGAGCUCAAGACGGCGUGACAUAGUGGCUGUGGCUAAACAGCU [C13G A16G G22A A25U G40A U43A C46U],0

row,Variant,self-cleavage
1,GACAGAGCUUAACACAGCGCGUCAAAGUGGCUGUGGCUAGACUGCC [G2A C10U U20C G22U],0.06
2,GGUAGAGCUCAACACAGCGUAUCAAAGUGGCUGUGGCUAGACUGCC [C3U G21A G22U],0.1
3,GGCAGAUCUCAACACAGCGUUGCAAAGUGGCUGUAGCUAGACUGCC [G7U G21U G35A],0.15
4,GGCAGAGCUCAACACAGCCUGGCAAAGUGGCUGUGGCUAGACGUCC [G19C U43G G44U],0.07
5,GGCAGAGCUCAACACAACGUGCCAAAGUGGCUGUGUCUAGACUGCC [G17A G22C G36U],0.18
6,GGCAGAGCUCAACCCAACGUGGCAAAGUGGCUCUGCCUAGACUGCC [A14C G17A G33C G36C],0.01
7,UGCAGAGCUCAACACAGCGUGGCAAAGUGUCUGUGGCUAGACUCCC [G1U G30U G44C],0.33
8,GUCAGACCUCAACACAGCGUGGCAAAGUGGCUGUGGCCAGACUGCC [G2U G7C U38C],0.07
9,GGCAGAGCGUAACUCAACGUGGCAAAGUGGUUGUGGCUGGACUGCC [U9G C10U A14U G17A C31U A39G],0.03
10,GGAAGAGCUCAACACAUCGUGGAAAAGUGGCUGUGGCUAGACUGCC [C3A G17U C23A],0.24
11,GGCAGAGAUCACCACAGCGUGGCAAAGUGUAUGUGGCUAGACUACC [C8A A12C G30U C31A G44A],0.03
12,GAAAGAGAUAAACACAGCGUGGCAAUGUGGCUGUGGCUAGACUGCC [G2A C3A C8A C10A A26U],0.08
13,GGCAGAGCUCAAGACAGCGUGACAAAGAGUAUGUGGCUAGACCGCC [C13G G22A U28A G30U C31A U43C],0.06
14,GGCAGAGCUUAACACACCGUGGCAAAGUGGCUGUGGCUAGAGUGCU [C10U G17C C42G C46U],0
15,GGCAGAGCUCAACACAGCUUGGGAAAAUGGCAGUGGCUAGACUGCC [G19U C23G G27A U32A],0.11
16,GGCAGAGCUCAACACAGCGAGGCAAAGUGGUUGUGGCUAGUCUGCC [U20A C31U A41U],0.13
17,GGCAGAGCUCAACACAGCGUGGGAAAGUGGCUAAGGCUAGACUGCC [C23G G33A U34A],0.04
18,GGCAGAGCUAAACACAGCGUGGGAAACUGGCAGUGGCAAGACUGCC [C10A C23G G27C U32A U38A],0.03
19,CGCAGGGCUCAAUACUGCGUGGCAAAGUGGCUGUGGCUAGACUGCC [G1C A6G C13U A16U],0.01

row,Variant,self-cleavage
1,GGCAGGGCUCAAAACAGCGUGGCAACGAGGCUGUGGCUAGACUGCC [A6G C13A A26C U28A],0.05
2,GGCAGCGCUCAACACAGCAUGGUAAAGUGGCUGUGGCUAGACUGCC [A6C G19A C23U],0.85
3,GGCAGAGACCAACCCAGCGUGCCAAAGUGGCUGUGGCUAGACUGCC [C8A U9C A14C G22C],0.06
4,GGCAGAGCGCAACACAGCGUGGCAAGGUGGCGGUUGCUAGACUGCC [U9G A26G U32G G35U],0.01
5,GGCGGAGGUCAACACAGCGUGGCAAAGUGGAUGUGGCUAGACUGCC [A4G C8G C31A],0.07
6,UGCUGAGCUCAACACAGCGUAGCAAAGUGGCUGUGGCUAGACUGCC [G1U A4U G21A],0.79
7,GGCAGAGCUAAACACAGCGUGGCAAAGUGCCUGUGGCUAGCCUGCC [C10A G30C A41C],0
8,GGCAGAGCACAACACAGCGUGGCAAAGUGGCACUGGCUAGACUGAC [U9A U32A G33C C45A],0
9,GGCAGAGCUCAACACAGCGUGGUAAAGUGUCUGUGGCUAAACUGCC [C23U G30U G40A],0.07
10,GGCAGAGCUCUACACAGCGUGGCAAAGUGGAUGUGGCUAGCCUGCC [A11U C31A A41C],0.01
11,GGCAGGACUCAUCACAGCGUGGCAAGGUGGCUGUUGCUAGACUGCC [A6G G7A A12U A26G G35U],0.03
12,AGCGGAGCUCAACACAGCGUGACAAAGUGGCUGUGGCUAGACUGCC [G1A A4G G22A],0.22
13,GGUAGCGCUCAACACUGCGUGGCAAAGUGGCUGUGGCUAGACUGGC [C3U A6C A16U C45G],0.09
14,GACAGAGCUCUACACAGCGUGGCAAAGUGGCUGUGGAUAGACUGCU [G2A A11U C37A C46U],0
15,GGCACAGCUCAACACAUCAUGGCAAAGUGCCUAUGGCUAGACUGCC [G5C G17U G19A G30C G33A],0.02
16,GGCAGAGCUCAACACAGCGUGGCAUAGUGGCUGCGUCUAAACUGCC [A25U U34C G36U G40A],0.06
17,GGCAGAGCUCAAUACAGCGUGGCAAAGUGGCUUUUGCUAAACAGCC [C13U G33U G35U G40A U43A],0.1
18,GGCAGACCUCAACACAGCGUGGAAAAGUGGCGGUGGCUAGGCUGCC [G7C C23A U32G A41G],0.07
